Laboratory results from publication PMC9600989.
Results are given in words; binding and its absence hold for the method and conditions named. Binding seen in cells or lysates may run through a third protein. Some results given as binding are weak or reduced against the parent protein; the word gives no strength. For part of these data: Tags and fused reporters may be left off the sequences shown. Each block holds one molecule with its values, some of them ahead of it.

Amino acid sequences for entries named in this document (tags omitted). A change or cut given only in a name is not applied to a line headed by its entry. Chains listed by the source or under a name are the forms on record and can include a tag or linker.
UniProt P97438: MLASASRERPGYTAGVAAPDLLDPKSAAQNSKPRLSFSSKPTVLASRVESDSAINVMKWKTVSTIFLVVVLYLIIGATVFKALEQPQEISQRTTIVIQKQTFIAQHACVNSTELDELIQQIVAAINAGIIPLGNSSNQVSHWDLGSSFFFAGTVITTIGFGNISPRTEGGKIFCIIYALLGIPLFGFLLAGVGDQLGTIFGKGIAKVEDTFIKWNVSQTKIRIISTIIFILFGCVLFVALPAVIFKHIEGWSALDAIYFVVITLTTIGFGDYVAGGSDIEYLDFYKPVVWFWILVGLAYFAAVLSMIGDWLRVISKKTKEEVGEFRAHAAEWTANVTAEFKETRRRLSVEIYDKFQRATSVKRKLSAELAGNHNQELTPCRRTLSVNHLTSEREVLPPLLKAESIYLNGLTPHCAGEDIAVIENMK
VC-TREK1 isotype 2 (C-terminal portion of Venus fused to TREK1 isotype 2) (P97438, form named): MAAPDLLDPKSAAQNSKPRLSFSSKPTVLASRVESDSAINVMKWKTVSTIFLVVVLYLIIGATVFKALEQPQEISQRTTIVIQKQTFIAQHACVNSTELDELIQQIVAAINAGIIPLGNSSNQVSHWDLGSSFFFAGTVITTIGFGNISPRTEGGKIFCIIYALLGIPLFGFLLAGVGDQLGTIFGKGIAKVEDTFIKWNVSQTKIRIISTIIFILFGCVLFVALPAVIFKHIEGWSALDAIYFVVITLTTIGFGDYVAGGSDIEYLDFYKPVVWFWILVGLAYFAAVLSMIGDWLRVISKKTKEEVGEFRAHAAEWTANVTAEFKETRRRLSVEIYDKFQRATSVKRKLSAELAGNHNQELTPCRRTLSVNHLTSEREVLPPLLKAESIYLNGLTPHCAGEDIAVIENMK

Tests used:
[1] = target: T1, β-coat protein (β-COP), endogenous in cultured mouse astrocytes (mouse (endogenous in cultured astrocytes)) (UniProt Q9JIF7); assay: co-IP; endogenous proteins, cultured astrocyte lysate in RIPA buffer, IP overnight at 4 °C with anti-TREK1 or anti-β-COP, Protein G agarose, blot for the other protein
T1 sequence: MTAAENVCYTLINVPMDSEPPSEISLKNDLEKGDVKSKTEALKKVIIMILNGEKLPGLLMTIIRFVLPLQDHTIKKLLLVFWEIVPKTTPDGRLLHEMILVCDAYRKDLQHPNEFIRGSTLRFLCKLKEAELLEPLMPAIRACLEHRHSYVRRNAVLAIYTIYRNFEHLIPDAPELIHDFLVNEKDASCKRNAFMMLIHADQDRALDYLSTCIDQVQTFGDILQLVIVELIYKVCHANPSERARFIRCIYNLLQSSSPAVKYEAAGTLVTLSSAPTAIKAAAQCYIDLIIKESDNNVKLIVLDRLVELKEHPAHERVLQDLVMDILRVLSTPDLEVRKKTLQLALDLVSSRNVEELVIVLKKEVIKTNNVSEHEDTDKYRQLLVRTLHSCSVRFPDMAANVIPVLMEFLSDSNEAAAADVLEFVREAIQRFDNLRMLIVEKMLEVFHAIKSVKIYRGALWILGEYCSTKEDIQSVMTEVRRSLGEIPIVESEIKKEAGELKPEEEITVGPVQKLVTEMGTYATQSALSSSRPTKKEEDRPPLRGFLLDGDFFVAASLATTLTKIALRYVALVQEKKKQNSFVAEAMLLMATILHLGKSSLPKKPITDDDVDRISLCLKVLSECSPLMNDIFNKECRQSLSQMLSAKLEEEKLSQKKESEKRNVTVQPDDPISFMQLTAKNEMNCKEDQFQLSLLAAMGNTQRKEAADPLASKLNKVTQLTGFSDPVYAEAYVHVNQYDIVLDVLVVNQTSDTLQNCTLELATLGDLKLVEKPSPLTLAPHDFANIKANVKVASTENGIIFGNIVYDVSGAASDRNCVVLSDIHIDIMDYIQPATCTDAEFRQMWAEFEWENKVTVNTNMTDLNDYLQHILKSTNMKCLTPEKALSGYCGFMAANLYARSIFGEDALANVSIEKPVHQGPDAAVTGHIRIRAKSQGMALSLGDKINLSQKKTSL

[2] = target: TWIK-related K+ channel 1 (TREK1), endogenous in cultured mouse astrocytes (mouse (endogenous in cultured astrocytes)) (UniProt P97438); assay: as above
[3] = target: TWIK-related K+ channel 1 (TREK1), endogenous in cultured mouse astrocytes (mouse (endogenous in cultured astrocytes)) (UniProt P97438); assay: proximity ligation; Duolink PLA in fixed cultured mouse astrocytes with anti-TREK1 and anti-β-COP; anti-β-COP alone as control
[4] = target: T2, Flag-tagged TWIK1 (mouse) (UniProt O08581); assay: co-IP; HEK293T cells co-transfected with Flag-tagged channel and GFP-β-COP, RIPA lysate, IP with anti-Flag, blot with anti-GFP
T2 sequence: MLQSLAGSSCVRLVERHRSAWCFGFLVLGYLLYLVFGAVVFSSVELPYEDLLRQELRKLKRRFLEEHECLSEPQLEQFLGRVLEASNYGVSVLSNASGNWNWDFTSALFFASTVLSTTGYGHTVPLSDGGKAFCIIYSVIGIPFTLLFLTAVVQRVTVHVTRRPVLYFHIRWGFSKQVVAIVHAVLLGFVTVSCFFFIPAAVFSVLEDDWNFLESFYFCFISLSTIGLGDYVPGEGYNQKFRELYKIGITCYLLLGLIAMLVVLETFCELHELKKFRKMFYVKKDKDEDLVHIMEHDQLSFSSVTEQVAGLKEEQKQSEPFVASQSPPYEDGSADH

[5] = target: Flag-tagged TREK1 isotype 2 (mouse) (UniProt P97438); assay: as above
[6] = target: VC-TREK1 isotype 2 (C-terminal portion of Venus fused to TREK1 isotype 2) (mouse) (UniProt P97438); assay: split reporter; BiFC with split Venus (VN173, VC155) in co-transfected HEK293T cells, fixed 24 h after transfection, confocal microscopy

Molecule: TWIK-related K+ channel 1 (TREK1), endogenous in cultured mouse astrocytes (from UniProt P97438 1-426)
binding [1]: binds

B3: VN-β-COP (N-terminal portion of Venus fused to β-COP) (protein, UniProt Q9JIF7 1-953)
chain: MTAAENVCYTLINVPMDSEPPSEISLKNDLEKGDVKSKTEALKKVIIMILNGEKLPGLLMTIIRFVLPLQDHTIKKLLLVFWEIVPKTTPDGRLLHEMILVCDAYRKDLQHPNEFIRGSTLRFLCKLKEAELLEPLMPAIRACLEHRHSYVRRNAVLAIYTIYRNFEHLIPDAPELIHDFLVNEKDASCKRNAFMMLIHADQDRALDYLSTCIDQVQTFGDILQLVIVELIYKVCHANPSERARFIRCIYNLLQSSSPAVKYEAAGTLVTLSSAPTAIKAAAQCYIDLIIKESDNNVKLIVLDRLVELKEHPAHERVLQDLVMDILRVLSTPDLEVRKKTLQLALDLVSSRNVEELVIVLKKEVIKTNNVSEHEDTDKYRQLLVRTLHSCSVRFPDMAANVIPVLMEFLSDSNEAAAADVLEFVREAIQRFDNLRMLIVEKMLEVFHAIKSVKIYRGALWILGEYCSTKEDIQSVMTEVRRSLGEIPIVESEIKKEAGELKPEEEITVGPVQKLVTEMGTYATQSALSSSRPTKKEEDRPPLRGFLLDGDFFVAASLATTLTKIALRYVALVQEKKKQNSFVAEAMLLMATILHLGKSSLPKKPITDDDVDRISLCLKVLSECSPLMNDIFNKECRQSLSQMLSAKLEEEKLSQKKESEKRNVTVQPDDPISFMQLTAKNEMNCKEDQFQLSLLAAMGNTQRKEAADPLASKLNKVTQLTGFSDPVYAEAYVHVNQYDIVLDVLVVNQTSDTLQNCTLELATLGDLKLVEKPSPLTLAPHDFANIKANVKVASTENGIIFGNIVYDVSGAASDRNCVVLSDIHIDIMDYIQPATCTDAEFRQMWAEFEWENKVTVNTNMTDLNDYLQHILKSTNMKCLTPEKALSGYCGFMAANLYARSIFGEDALANVSIEKPVHQGPDAAVTGHIRIRAKSQGMALSLGDKINLSQKKTSL
binding [6]: binds

Further lines, results first:

binding [2]: binds | binding [3]: binds
B1: β-coat protein (β-COP), endogenous in cultured mouse astrocytes (protein, UniProt Q9JIF7 1-953)
chain: MTAAENVCYTLINVPMDSEPPSEISLKNDLEKGDVKSKTEALKKVIIMILNGEKLPGLLMTIIRFVLPLQDHTIKKLLLVFWEIVPKTTPDGRLLHEMILVCDAYRKDLQHPNEFIRGSTLRFLCKLKEAELLEPLMPAIRACLEHRHSYVRRNAVLAIYTIYRNFEHLIPDAPELIHDFLVNEKDASCKRNAFMMLIHADQDRALDYLSTCIDQVQTFGDILQLVIVELIYKVCHANPSERARFIRCIYNLLQSSSPAVKYEAAGTLVTLSSAPTAIKAAAQCYIDLIIKESDNNVKLIVLDRLVELKEHPAHERVLQDLVMDILRVLSTPDLEVRKKTLQLALDLVSSRNVEELVIVLKKEVIKTNNVSEHEDTDKYRQLLVRTLHSCSVRFPDMAANVIPVLMEFLSDSNEAAAADVLEFVREAIQRFDNLRMLIVEKMLEVFHAIKSVKIYRGALWILGEYCSTKEDIQSVMTEVRRSLGEIPIVESEIKKEAGELKPEEEITVGPVQKLVTEMGTYATQSALSSSRPTKKEEDRPPLRGFLLDGDFFVAASLATTLTKIALRYVALVQEKKKQNSFVAEAMLLMATILHLGKSSLPKKPITDDDVDRISLCLKVLSECSPLMNDIFNKECRQSLSQMLSAKLEEEKLSQKKESEKRNVTVQPDDPISFMQLTAKNEMNCKEDQFQLSLLAAMGNTQRKEAADPLASKLNKVTQLTGFSDPVYAEAYVHVNQYDIVLDVLVVNQTSDTLQNCTLELATLGDLKLVEKPSPLTLAPHDFANIKANVKVASTENGIIFGNIVYDVSGAASDRNCVVLSDIHIDIMDYIQPATCTDAEFRQMWAEFEWENKVTVNTNMTDLNDYLQHILKSTNMKCLTPEKALSGYCGFMAANLYARSIFGEDALANVSIEKPVHQGPDAAVTGHIRIRAKSQGMALSLGDKINLSQKKTSL

binding [4]: no binding | binding [5]: binds
B2: GFP-tagged β-COP (protein, UniProt Q9JIF7 1-953)
chain: MTAAENVCYTLINVPMDSEPPSEISLKNDLEKGDVKSKTEALKKVIIMILNGEKLPGLLMTIIRFVLPLQDHTIKKLLLVFWEIVPKTTPDGRLLHEMILVCDAYRKDLQHPNEFIRGSTLRFLCKLKEAELLEPLMPAIRACLEHRHSYVRRNAVLAIYTIYRNFEHLIPDAPELIHDFLVNEKDASCKRNAFMMLIHADQDRALDYLSTCIDQVQTFGDILQLVIVELIYKVCHANPSERARFIRCIYNLLQSSSPAVKYEAAGTLVTLSSAPTAIKAAAQCYIDLIIKESDNNVKLIVLDRLVELKEHPAHERVLQDLVMDILRVLSTPDLEVRKKTLQLALDLVSSRNVEELVIVLKKEVIKTNNVSEHEDTDKYRQLLVRTLHSCSVRFPDMAANVIPVLMEFLSDSNEAAAADVLEFVREAIQRFDNLRMLIVEKMLEVFHAIKSVKIYRGALWILGEYCSTKEDIQSVMTEVRRSLGEIPIVESEIKKEAGELKPEEEITVGPVQKLVTEMGTYATQSALSSSRPTKKEEDRPPLRGFLLDGDFFVAASLATTLTKIALRYVALVQEKKKQNSFVAEAMLLMATILHLGKSSLPKKPITDDDVDRISLCLKVLSECSPLMNDIFNKECRQSLSQMLSAKLEEEKLSQKKESEKRNVTVQPDDPISFMQLTAKNEMNCKEDQFQLSLLAAMGNTQRKEAADPLASKLNKVTQLTGFSDPVYAEAYVHVNQYDIVLDVLVVNQTSDTLQNCTLELATLGDLKLVEKPSPLTLAPHDFANIKANVKVASTENGIIFGNIVYDVSGAASDRNCVVLSDIHIDIMDYIQPATCTDAEFRQMWAEFEWENKVTVNTNMTDLNDYLQHILKSTNMKCLTPEKALSGYCGFMAANLYARSIFGEDALANVSIEKPVHQGPDAAVTGHIRIRAKSQGMALSLGDKINLSQKKTSL
